Data as given in PubChem BioAssay AID1346428 (National Center for Advancing Translational Sciences (NCATS), 2018).
Among all 48,000 compounds or so, about 1,200 (2.5%) were called active. Not shown: some 2% with an inconclusive outcome.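 The calls were made as follows: active = activation of at least 60% and not above a set upper limit (about 1 call in 100 departs from these limits); inconclusive = activation of 40% to 60%, or above that upper limit; inactive = activation under 40%.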 The list shows a part of the results.

Molecular target: Probable G-protein coupled receptor 32 (Homo sapiens) (UniProt O75388)
Assay: qHTS for Agonists of Human Resolvin D1 Receptor DRV1; also: 0% is about no effect
Conditions: CHO-K1 GPR32 beta-arrestin PathHunter luminescence, 90 min; at 76.9 µM; active compounds read high; zero percent set by DMSO-only wells
Summary of the method: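 Beta-arrestin recruitment read-out: luminescence from complemented beta-Gal in CHO-K1 GPR32 PathHunter cells, measured 1 h after detection reagent at ambient temperature following 90 min compound exposure at 37 °C; DMSO served as basal (EC0) control.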

UniProt O75388, sequence (O75388 whole entry, looked up): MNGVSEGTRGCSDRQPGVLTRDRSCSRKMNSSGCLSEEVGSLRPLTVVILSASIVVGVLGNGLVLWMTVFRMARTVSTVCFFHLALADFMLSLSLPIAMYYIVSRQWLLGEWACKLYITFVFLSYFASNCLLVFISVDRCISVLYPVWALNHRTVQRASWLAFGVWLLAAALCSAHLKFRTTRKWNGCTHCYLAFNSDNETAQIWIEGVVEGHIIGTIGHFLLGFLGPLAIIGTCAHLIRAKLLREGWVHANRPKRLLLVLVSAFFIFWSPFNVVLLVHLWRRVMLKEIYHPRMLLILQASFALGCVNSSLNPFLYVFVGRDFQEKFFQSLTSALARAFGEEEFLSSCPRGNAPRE

activation, inactive:
CCOC(=O)C1CCN(C(=O)Cn2ncc3c4ccccc4n(C)c3c2=O)CC1 10.5%
COc1ccc(CNC(=O)CCCN2C(=O)c3cccnc3Oc3ccc(Cl)cc32)cc1 -21.3%
Cc1cccc(NS(=O)(=O)c2nnc(NC(=O)c3cccc(C)c3)s2)c1 21.8%
Cc1ccc(-n2c(SCC(=O)Nc3ccc4c(c3)OCCO4)nc3c([nH]c4ccccc43)c2=O)cc1 -19.8%
Cc1csc2nc(COC(=O)c3ccc(NC(=O)C(C)C)cc3)cc(=O)n12 0.626%
CC(C)OCCCNC(=O)CN1C(=O)COc2ccc(S(=O)(=O)N3CCOCC3)cc21 -2.64%
COc1ccccc1NC(=O)c1ncoc1-c1ccco1 -0.104%
Cc1cccc(NC(=O)c2cc3c(=O)n4ccccc4nc3n2C)c1C -4.34%
CCCCNC(=O)Cn1cnc2sc(C)c(S(=O)(=O)N3CCN(c4ccccc4OC)CC3)c2c1=O 1.14%
COCCNC(=O)c1ccc(-c2nc(CN3CCc4ccccc43)c(C)o2)cc1 13.2%
Cc1ccc(OCC(=O)Nc2sc3c(c2C(N)=O)CCCC3)c(C(C)(C)C)c1 8.11%
CCOC(=O)c1ccc(NC(=O)CN2CCCCC2)cc1 -23.5%
O=C(Cn1ncc2c3ccccc3n(Cc3ccccc3F)c2c1=O)NCCCc1ccccc1 -5.95%
CC(CC(C#N)(c1ccccc1)C(C)C)N(C)C (stereo not given) -33.7%
CCOc1ccc2nc(NC(=O)c3ccccc3)sc2c1 1.1%
CCOc1ccccc1C(=O)N(Cc1ccco1)Cc1ccccc1F -27.8%
COC(=O)c1ccccc1NC(=O)CSc1nc2nc(C)cc(C)n2n1 -4.26%
COc1ccc(-c2noc(-c3ccc(NC4CCCCC4)c([N+](=O)[O-])c3)n2)cc1 18.7%
CCc1nn2c(=O)cc(COC(=O)c3ccc(NC(=O)C4CCCCC4)cc3)nc2s1 -13.3%
CCC1CCc2nc3sc(C(=O)Nc4cccc(C(F)(F)F)c4)c(N)c3cc2C1 (stereo not given) 21%
O=C(COc1ccc(F)cc1)Nc1ccccc1OCc1cc(=O)n2ccccc2n1 -13%
COc1cccc(NC(=O)c2ccc3[nH]c(C)cc(=O)c3c2)c1 -0.0785%
O=C(CCn1c(=O)c2cccn2c2cccnc21)NCc1ccccc1F -8.52%
COc1ccc(S(=O)(=O)Nc2cc3c(cc2N2CCOCC2)n(C)c(=O)n3C)cc1 -9.08%
CCCc1cc(=O)oc2cc(C)c3c(C(C)(C)C)coc3c12 10.5%
COC(=O)c1ccc(Cn2nc(-c3ccc(C)cc3)ccc2=O)cc1 -44.6%
NC(=O)c1ccccc1O -1.12%
Cn1c(SCc2ccccc2Cl)nc2c([nH]c3ccccc32)c1=O 0.094%
CCc1cccc(NC(=O)c2oc3ccc4c(c3c2C)C(=O)CC(C)(C)O4)c1 -4.82%
NC(=O)CSc1nnnn1-c1cccc(O)c1 7.97%
COc1cccc(CN2C(=O)C3(SCC(=O)N3c3ccc(C(C)C)cc3)c3ccccc32)c1 (stereo not given) -14.6%
O=C(c1ccc2c(c1)OCCO2)N(Cc1cccnc1)c1nc2c(F)cc(F)cc2s1 -21.8%
COc1cccc(CNS(=O)(=O)c2ccc(-c3cc(C(F)(F)F)on3)s2)c1 -14%
CCOC(=O)c1ccc(N2C(=O)Cc3cc(OCC)c(OCC)cc3C2c2ccccc2)cc1 (stereo not given) -3.84%
CCOc1ccc(NS(=O)(=O)c2ccc3[nH]cc(C(=O)N4CCCCCC4)c(=O)c3c2)cc1 -1.85%
COc1ccc(N(CC(=O)Nc2cc(Cl)ccc2C)S(=O)(=O)c2c(C)noc2C)cc1 -4.88%
CCOc1ccc(C(=O)Nc2ccc3oc(-c4ccc(Br)cc4)nc3c2)cc1 0.786%
Cc1ccccc1-c1nc(SCC(=O)NCC2CCCO2)c2c(=O)n(C)c(=O)n(C)c2n1 (stereo not given) -5.31%
COc1ccc(Cc2nc3ccc(C(=O)NCCCN4CCN(C)CC4)cc3o2)cc1 -30.8%
Cc1cccc(CCNC(=O)CCc2c(C)nc3ncnn3c2C)c1 -2.29%
COCCNC(=O)c1ccc2c(=O)n(CCOC)c(SCC(=O)c3c[nH]c4ccccc34)nc2c1 8.48%
COc1ccc(N2CCN(C(=O)c3sc4nc5n(c(=O)c4c3C)CCC5)CC2)cc1 -14%
COc1ccccc1NC(=O)CCn1cnc2onc(-c3ccc(F)cc3)c2c1=O 37%
COc1cc(C)ccc1OCCSc1nc2ccc(NC(=O)c3ccc(C)cc3)cc2s1 -0.17%
CC1(C)CC(=O)c2cc(-c3nc(-c4ccc(Cl)cc4)cs3)c(=O)n(-c3cccc(F)c3)c2C1 20.1%
CCCNC(=O)C1CCN(Cc2cc3ccccc3n2Cc2ccccc2)CC1 -12.7%
COc1ccc(CNC(=O)CCc2c(C)nc3nc(CNC(=O)OC(C)(C)C)nn3c2C)cc1 -7.07%
Cn1cc(C(=O)NCCc2ccccc2)c(=O)c2cc(S(=O)(=O)N3CCCCCC3)ccc21 -19.1%
Cc1c(C(=O)N(Cc2ccc(N(C)C)cc2)Cc2ccco2)oc2cc(Br)ccc12 -24.9%
CC(=O)c1cccc(Nc2nn(-c3ccc(OC(F)(F)F)cc3)nc2C(C)=O)c1 -7.26%
COc1ccc(-c2ccc(CCC(=O)O)n2CC(=O)Nc2cccc(Cl)c2C)cc1 -24.7%
CCCSc1nnc2c(n1)OC(c1ccc(OCC(=O)O)cc1)Nc1ccccc1-2 (stereo not given) -6.3%
COc1ccccc1-c1noc(-c2ccc(NCc3cccnc3)c([N+](=O)[O-])c2)n1 -18.4%
CCCCN1CCC(n2c(=O)[nH]c3ccccc32)CC1 -5.33%
O=C(CN1C(=O)CC(c2ccco2)Sc2ccccc21)Nc1ccc(Br)cc1 (stereo not given) -4.69%
CCc1cc2c(cc3c(=O)n(CC(=O)NC4CCCCC4)ncn32)s1 -0.31%
COc1ccc(-n2ccn(Cc3ccccc3C)c(=O)c2=O)cc1 -26.3%
CCCCn1cc(S(=O)(=O)c2ccc(CC)cc2)c(=O)c2cc(F)c(N3CCOCC3)cc21 -7.82%
Cc1cc(C)cc(NC(=O)C(=O)NCC(c2cccnc2)N2CCN(c3ccccc3)CC2)c1 (stereo not given) -8.87%
COc1cccc(C(c2sc3nc(-c4ccco4)nn3c2O)N2CCN(c3ccccc3F)CC2)c1 (stereo not given) -7.32%
CCOc1ccc(N(C(C)C(=O)NCCSc2ccc(C)cc2)S(C)(=O)=O)cc1 (stereo not given) 17.4%
COc1ccc(NC(=O)C(C)Sc2cc(-c3ccccc3)nc(C)n2)cc1Cl (stereo not given) -18.2%
COc1ccc(-c2cc(C(=O)NCCc3ccc(OC)c(OC)c3)c3ccccc3n2)cc1 -46.7%
O=C1CN(C(=O)Nc2ccccc2Cl)C(c2ccccc2)c2c(sc3c2CCCC3)N1 (stereo not given) -15.4%
Cc1nn(-c2ccccc2)c2c1N(CCCC(=O)NCc1ccccc1)C(=O)CS2 -18.4%
CC(=O)Nc1ccc(NC(=O)c2cc3sccc3n2Cc2ccc(Cl)cc2)cc1 39.5%
Cc1cc(C)cc(NC(=O)Nc2ccccc2OCc2cc(=O)n3ccccc3n2)c1 -5.68%
CCOC(=O)c1c(NC(=O)/C(C#N)=C/c2ccccc2)sc2c1CCC2 13.3%
COc1cc(NC(=O)Cn2cnc3c2c(=O)n(C)c(=O)n3C)c(OC)cc1Cl 12.8%
CCOc1ccccc1NC(=O)c1c(NCc2cccs2)sc2c1CCCCC2 -12.7%
CCOc1cc(/C=C(\C#N)C(=O)Nc2ccc(C)cc2)ccc1OCc1cc(=O)n2nc(CC)sc2n1 1.78%
CCOc1ccc(NC(=O)c2c(NC(=O)c3ccccc3F)sc3c2CCC3)cc1 3.98%
C#CCn1cnc2c(cnn2-c2ccc(F)cc2)c1=O -4.94%
CCC(=O)N1CCc2cc(Br)cc(S(=O)(=O)CCC(=O)Nc3ccc(C)c(F)c3)c21 -2.55%
O=C(NOCC1CC1)c1ccc(F)c(F)c1Nc1ccc(I)cc1Cl 45.6%
COc1ccc2c(c1)CC(C(=O)NCCCN1CCN(c3ccccc3F)CC1)CO2 (stereo not given) -3%
CCC(=O)N1CCc2cc(CNS(=O)(=O)c3ccc(NC(=O)CC(C)C)cc3)ccc21 0.129%
CCc1c(C)sc2c1CCN(C(=O)Nc1cc(Cl)c(OC)cc1OC)C2c1ccccc1 (stereo not given) -9.27%
COc1cccc2c1Oc1ncccc1N(C(=O)CCC(=O)NC(C)C)C2 8.46%
CCN(CC)S(=O)(=O)c1ccc(NC(=O)c2c(C)oc3ncnc(N4CCOCC4)c23)cc1 -12.5%
CCn1c(C)c(C)c2cc(C(=O)NCc3ccc(OC)cc3OC)ccc21 -26.1%
CC(C)(C)c1ccc(C2=NC(C)(C)N(CC(=O)Nc3ccc(F)c(F)c3)C2=O)cc1 2.63%
Cc1ccc(-c2nnc(Nc3ccc(OCC(N)=O)cc3)c3ccccc23)cc1S(=O)(=O)N(C)C -2.43%
CCOC(=O)c1c(NC(=O)c2cc3nc(-c4ccccc4)cc(C(F)(F)F)n3n2)sc2c1CCC(C)C2 (stereo not given) -15.7%
CCCNC(=O)c1cnc2sc(N3CCCCCC3)nn2c1=O 1.29%
